Experimental data reported in the RNAGym collection of RNA variant scans (doi:10.7554/elife.90254).
Read counts are not given, so values of variants with three or more changes are uncertain.

B1: LINE1-mini (parent)
chain: GGCAGAGCUCAACACAGCGUGGCAAAGUGGCUGUGGCUAGACUGCC

Variants of: B1
Test: self-cleavage, relative activity (ratio to wild type); higher = more cleavage; in vitro, sequencing; the parent is a self-cleaving ribozyme

**Q.** With CCCAAAGCUCAACACAGCGUGGCGAAGUCGAUGUGGCUAGAGGGCC as the variant, how does the self-cleavage read?
**A.** 0.03

**Q.** Which self-cleavage does the source give for GGCAGAGUUCAAUACAGCGUGGCAAAGUGGCUGUAGCUAGACUGCC here?
**A.** 0.15

**Q.** For GGCAGAGCACAACAAAGCGUGGCAAAUUGGCUGUGGCGAGACUGCC, which self-cleavage is on record?
**A.** 0.02

**Q.** With GGCAGAUCUCAACACAGCGUGGCCAAGUGGCUGUGGUUAGACUGCC as the variant, how does the self-cleavage read?
**A.** 0.03

**Q.** With CGCAGAGCUCAACACAACGUGGCAAAGUGGUUGUGUCUAGACUGCC as the variant, how does the self-cleavage read?
**A.** 0.01

**Q.** Which self-cleavage does the source give for CGCAGAGCUCAACACAGCGUCGCAAAGUAGCCGUGGCUAGACUUCU here?
**A.** 0.02

**Q.** For GGCAAAGCUCAACACAGCGUGGCAAAGUGGCUGUGACUAGACUUCC, which self-cleavage is on record?
**A.** 0.36

**Q.** Which self-cleavage does the source give for GGCAGAGCUCAACACAGCGUGGCAAAAUGGCUGUGGAUAGAGUGCC here?
**A.** 0.01

**Q.** For GGCAGAGCUCAACACUGUGUGGCAAAGUGGCUGUGGCUAGCCUGCC, which self-cleavage is on record?
**A.** 0.07

**Q.** For GGCAGAGCUCAACACAGCGUGACAAAGUGGCAGUGUCUAGGCUGCC, which self-cleavage is on record?
**A.** 0.04

**Q.** For GGCAGAGCUGAACGCAGCGUGGCAAAGUGGCUGUGGCUAUACUACC, which self-cleavage is on record?
**A.** 0.02

**Q.** For GGUAGAGCUCAACACUGCGUGGCAAAGUGGCUGUGGCUAGUUUGCC, which self-cleavage is on record?
**A.** 0.06

**Q.** With GGCAGAGCUCAACCAAGCGUGGCAAAGAGGCUGUGGCUAGACUGCA as the variant, how does the self-cleavage read?
**A.** 0.05

**Q.** Which self-cleavage does the source give for GGCAGAGCUCAACAUAGUGUGGAAUAGUGACUGUGGCUAGAUUGCC here?
**A.** 0.65

**Q.** For GGCAGAUCUCCACACAGCGUGGCAAAGUGGCUGUGGGUAGACUGCC, which self-cleavage is on record?
**A.** 0.01

**Q.** For GGCAGAGCUCAGCACAGCAUGGCAAAGUCUCUGUGGAUAGACUGCC, which self-cleavage is on record?
**A.** 0.02

**Q.** Which self-cleavage does the source give for GGCAGAGCUCAACAUAGCGUGGCCAAGUGGCUGUGGCUAUACUGUC here?
**A.** 0.04

**Q.** With GGCAUAGCUCAACACAGCGUGGCAAAGUGGCUGUGGCUUGACUGCU as the variant, how does the self-cleavage read?
**A.** 0.06

**Q.** For GGCAUAGCGCAACACAGCGUGGCAAAGUUGCUGUGGCUAGACUGCC, which self-cleavage is on record?
**A.** 0.12

**Q.** Which self-cleavage does the source give for AGCAUAGCUCAACAAAGCGUGGCAAAAUUGCUGUGGGUAGACUGCC here?
**A.** 0.01

**Q.** Which self-cleavage does the source give for GGCAGAGCACAACACAGCGCGGCAAGGUGGCUGUGGCUAGACUGCC here?
**A.** 0.08

**Q.** For GGGCGGGCUCAGCACAGCGUGUCAAAGUGGCUGUGGCUAGACUGCC, which self-cleavage is on record?
**A.** 0.01

**Q.** With GGCAGAGCUCAAUACAGCGUGGCAAAGUGGCUGUAGCUAGAGUGCC as the variant, how does the self-cleavage read?
**A.** 0.2

**Q.** With GACAGAGCUCAACAAAGCGUGACAGAGGAGCCGUGGCUAGACUUCC as the variant, how does the self-cleavage read?
**A.** 0.06

**Q.** For GGCAGAGCUCAACCCAGAUUGGCAAAGUGGCUGUGGCUAGACUGCC, which self-cleavage is on record?
**A.** 0.03

**Q.** For CACAGAGCUCAACACAGCAUGGCAAAGUGGCUGUUGCUAGACUGCC, which self-cleavage is on record?
**A.** 0.02

**Q.** Which self-cleavage does the source give for GUCAGAGCUCAACAUAGCGUGGCAAAGUGGCUGUGGCUAUACUGCC here?
**A.** 0.11

**Q.** Which self-cleavage does the source give for GGCAAAGCUCUACACAGCGUGGCAAAGUGGCUGUGGCUAGACUGUC here?
**A.** 0.03

**Q.** With GGCCGAGCUCCACACAGCGUGGUAUAGUGGCUGUGGCUAGUCUGCC as the variant, how does the self-cleavage read?
**A.** 0.01

**Q.** Which self-cleavage does the source give for GGCAGAACUCAACACUGCGUGGCAAAGUGGCUUUGGCUAGACUGCC here?
**A.** 0.11

**Q.** For GGCAUAGCUAAACACUGCGUGGCAAAGUGGCUGCGGCUAGACUGCC, which self-cleavage is on record?
**A.** 0.04

**Q.** Which self-cleavage does the source give for GCCAGAGGUAAACACAGCGUGGCAAAGUGACUGUGGCUAGACAGCC here?
**A.** 0.01

**Q.** Which self-cleavage does the source give for GGCAGAGCUCAACACAGCGUGGCAAAGUAGCUGUGGCUACUCUGCC here?
**A.** 0.02

**Q.** For GGCAGCGUUCAACACAGCGUGGCAAAGAGGCUGUGCCUACACUGAC, which self-cleavage is on record?
**A.** 0.04

**Q.** For UACAGAGCUCGACACAGCGUGAAUAAGUGGCAGUGGCUAAACUGCC, which self-cleavage is on record?
**A.** 0.01

**Q.** With GGCAGAGCUCAACACAGCGUGGCAAAGUUGCUGGGGCUAGAAUGCC as the variant, how does the self-cleavage read?
**A.** 0.04

**Q.** Which self-cleavage does the source give for GGAACAGCUCAACACAGCGUGGCACACUGGCUGUGGCUACACUGCC here?
**A.** 0.06

**Q.** Which self-cleavage does the source give for GGCAGAUAUCAACACAGCGUGGCAAAGUGCCUGUGGCUAGACUGUC here?
**A.** 0.17

**Q.** Which self-cleavage does the source give for GGCAGAGCUCAACACAGCGUGACAAAGUGGCUGUGGCAUGACUGCC here?
**A.** 1.89

**Q.** With GCUAGAGCUCAGCUCAGCGUGGCAAAGUGGCUGUGGCUAGACUGCC as the variant, how does the self-cleavage read?
**A.** 0.06

**Q.** For GGCUGAGCUCAACACAGCGUGUCAAAGUGGCUGUGACUAGACUGCC, which self-cleavage is on record?
**A.** 0.5

**Q.** For UCCAGAGCUCAACACAGCGAGGCAAAGUGGCUGUGGCUAGUCUGCC, which self-cleavage is on record?
**A.** 0.05

**Q.** With GGCAGAGCUCAACACAGCGGGACAAAGUGGCUGUGGUUAGACUGCC as the variant, how does the self-cleavage read?
**A.** 0.05

**Q.** Which self-cleavage does the source give for GGCAAGGCUCAACAUAGCGUGGCAAAGUGGCUGUGGCUAGAAUGCC here?
**A.** 0.05

**Q.** With GGCAGAGCUCAACACAUCGUGGCAAAUGGGCUGUGGCUAGACUGCC as the variant, how does the self-cleavage read?
**A.** 0.08

**Q.** For GGCAGAGCUCAACACAGUUUGGCAAAGUGGCUGUGGCUAAACUGCC, which self-cleavage is on record?
**A.** 0.1

**Q.** Which self-cleavage does the source give for GGCAGAGCUCAAAACAGCAGGGCAAAGUGGCUGUGGCUAGAGUGCC here?
**A.** 0.03

**Q.** Which self-cleavage does the source give for GGCAGUGUUCAACACAGCGUGGCAAAGUGGCUGUGGCUAAACUGCC here?
**A.** 0.03

**Q.** With GGCAGAGCUCAAUACAGCGUGGCAGAGUGGCUGUGUCUAGACUGCA as the variant, how does the self-cleavage read?
**A.** 0.05

**Q.** With GGCAGAGCGCAACACAGCGUGGCACAGUCGCUGAGGCUUGACUGCC as the variant, how does the self-cleavage read?
**A.** 0.05

**Q.** For GGCAGAGGUAAACACAGCGUGGCAAAGUGGCUGGGGUUAGACUACC, which self-cleavage is on record?
**A.** 0

**Q.** With GGCAGAACUCAACACAGCGUGGAAAAGUGACUAUGGCUAGACAGCC as the variant, how does the self-cleavage read?
**A.** 0.18

**Q.** Which self-cleavage does the source give for GGCAGAGCUCAACACAGCGUGGCAAAGUGGUUGUAGGUAGACUGCC here?
**A.** 0.07

**Q.** For GGCAGUGCUCAACACAGCGUGGCAAAAUGGCUGGGACCAGACUGCC, which self-cleavage is on record?
**A.** 0.03

**Q.** For GUCAGAGCUCAACUCACCGUGGCAAAGUGGCUGUGGCUAGCCUGCC, which self-cleavage is on record?
**A.** 0

**Q.** Which self-cleavage does the source give for GGCAGAGCUCCACAAAGUGUGACAAAGUGGCUGUGGCUAGACUGCC here?
**A.** 0.02
